Article PMC9911399, “Two distinct binding modes provide the RNA-binding protein RbFox with extraordinary sequence specificity”
Numbering of substitutions follows the chain as printed; changes in the protein carry UniProt numbers. Some of the results follow.

T1: RBFOX1 RRM (Homo sapiens, UniProt Q9NWB1 109-208)
T1 sequence: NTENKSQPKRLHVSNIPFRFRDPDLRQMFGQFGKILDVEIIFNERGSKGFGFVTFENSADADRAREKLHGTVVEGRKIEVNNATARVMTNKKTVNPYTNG

B1: CGGAUGA (DNA:RNA)
RNA: GGGAGACCGGAAUUCAGAUUGUCCCGGAUGAUUAAAUCCCGUCGUAGCCACCA
DNA 1: CAATCTGAATTCCGGTCTCCC
DNA 2: TGGTGGCTACGACGGGATT
B2: GCGAACG (DNA:RNA)
RNA: B1 RNA with C25G, G26C, U29A, G30C, A31G
DNA 1: CAATCTGAATTCCGGTCTCCC
DNA 2: TGGTGGCTACGACGGGATT
B3: ACGUGGU (DNA:RNA)
RNA: B1 RNA with C25A, G26C, A28U, U29G, A31U
DNA 1: CAATCTGAATTCCGGTCTCCC
DNA 2: TGGTGGCTACGACGGGATT
B4: UCCUUCU (DNA:RNA)
RNA: B1 RNA with C25U, G26C, G27C, A28U, G30C, A31U
DNA 1: CAATCTGAATTCCGGTCTCCC
DNA 2: TGGTGGCTACGACGGGATT
B5: CAUGAAU (DNA:RNA)
RNA: B1 RNA with G26A, G27U, A28G, U29A, G30A, A31U
DNA 1: CAATCTGAATTCCGGTCTCCC
DNA 2: TGGTGGCTACGACGGGATT
B6: UGCACCA (DNA:RNA)
RNA: B1 RNA with C25U, G27C, U29C, G30C
DNA 1: CAATCTGAATTCCGGTCTCCC
DNA 2: TGGTGGCTACGACGGGATT
B7: UGAACGU (DNA:RNA)
RNA: B1 RNA with C25U, G27A, U29C, A31U
DNA 1: CAATCTGAATTCCGGTCTCCC
DNA 2: TGGTGGCTACGACGGGATT
B8: CACAACA (DNA:RNA)
RNA: B1 RNA with G26A, G27C, U29A, G30C
DNA 1: CAATCTGAATTCCGGTCTCCC
DNA 2: TGGTGGCTACGACGGGATT
B9: UAUUGAA (DNA:RNA)
RNA: B1 RNA with C25U, G26A, G27U, A28U, U29G, G30A
DNA 1: CAATCTGAATTCCGGTCTCCC
DNA 2: TGGTGGCTACGACGGGATT
B10: AGCGAAG (DNA:RNA)
RNA: B1 RNA with C25A, G27C, A28G, U29A, G30A, A31G
DNA 1: CAATCTGAATTCCGGTCTCCC
DNA 2: TGGTGGCTACGACGGGATT
B11: AUCUCAC (DNA:RNA)
RNA: GGGAGACCGGAAUUCAGAUUGUCCAUCUCACUUAAAUCCCGUCGUAGCCACCA
DNA 1: CAATCTGAATTCCGGTCTCCC
DNA 2: TGGTGGCTACGACGGGATT
B12: GGUGAGU (DNA:RNA)
RNA: B1 RNA with C25G, G27U, A28G, U29A, A31U
DNA 1: CAATCTGAATTCCGGTCTCCC
DNA 2: TGGTGGCTACGACGGGATT
B13: UCCGGCU (DNA:RNA)
RNA: B11 RNA with A25U, U26C, U28G, C29G, A30C, C31U
DNA 1: CAATCTGAATTCCGGTCTCCC
DNA 2: TGGTGGCTACGACGGGATT
B14: GUCUCUG (DNA:RNA)
RNA: B11 RNA with A25G, A30U, C31G
DNA 1: CAATCTGAATTCCGGTCTCCC
DNA 2: TGGTGGCTACGACGGGATT
B15: CGAUUCC (DNA:RNA)
RNA: B1 RNA with G27A, A28U, G30C, A31C
DNA 1: CAATCTGAATTCCGGTCTCCC
DNA 2: TGGTGGCTACGACGGGATT
B16: UCUAUUG (DNA:RNA)
RNA: B1 RNA with C25U, G26C, G27U, G30U, A31G
DNA 1: CAATCTGAATTCCGGTCTCCC
DNA 2: TGGTGGCTACGACGGGATT
B17: GUUUAUC (DNA:RNA)
RNA: B11 RNA with A25G, C27U, C29A, A30U
DNA 1: CAATCTGAATTCCGGTCTCCC
DNA 2: TGGTGGCTACGACGGGATT
B18: AUCCCGU (DNA:RNA)
RNA: B11 RNA with U28C, A30G, C31U
DNA 1: CAATCTGAATTCCGGTCTCCC
DNA 2: TGGTGGCTACGACGGGATT
B19: CACAGUA (DNA:RNA)
RNA: B1 RNA with G26A, G27C, U29G, G30U
DNA 1: CAATCTGAATTCCGGTCTCCC
DNA 2: TGGTGGCTACGACGGGATT
B20: CGCAGAG (DNA:RNA)
RNA: B1 RNA with G27C, U29G, G30A, A31G
DNA 1: CAATCTGAATTCCGGTCTCCC
DNA 2: TGGTGGCTACGACGGGATT
B21: GCGAAAG (DNA:RNA)
RNA: B1 RNA with C25G, G26C, U29A, G30A, A31G
DNA 1: CAATCTGAATTCCGGTCTCCC
DNA 2: TGGTGGCTACGACGGGATT
B22: AGAAAUG (DNA:RNA)
RNA: B1 RNA with C25A, G27A, U29A, G30U, A31G
DNA 1: CAATCTGAATTCCGGTCTCCC
DNA 2: TGGTGGCTACGACGGGATT
B23: UUCCCCC (DNA:RNA)
RNA: B11 RNA with A25U, U28C, A30C
DNA 1: CAATCTGAATTCCGGTCTCCC
DNA 2: TGGTGGCTACGACGGGATT
B24: CCUGCCU (DNA:RNA)
RNA: B11 RNA with A25C, U26C, C27U, U28G, A30C, C31U
DNA 1: CAATCTGAATTCCGGTCTCCC
DNA 2: TGGTGGCTACGACGGGATT
B25: CUGACCC (DNA:RNA)
RNA: B11 RNA with A25C, C27G, U28A, A30C
DNA 1: CAATCTGAATTCCGGTCTCCC
DNA 2: TGGTGGCTACGACGGGATT
B26: CGAUCGA (DNA:RNA)
RNA: B1 RNA with G27A, A28U, U29C
DNA 1: CAATCTGAATTCCGGTCTCCC
DNA 2: TGGTGGCTACGACGGGATT
B27: GCUGUGG (DNA:RNA)
RNA: B1 RNA with C25G, G26C, G27U, A28G, A31G
DNA 1: CAATCTGAATTCCGGTCTCCC
DNA 2: TGGTGGCTACGACGGGATT
B28: GCGCUCG (DNA:RNA)
RNA: B1 RNA with C25G, G26C, A28C, G30C, A31G
DNA 1: CAATCTGAATTCCGGTCTCCC
DNA 2: TGGTGGCTACGACGGGATT
B29: AUCGGGC (DNA:RNA)
RNA: B11 RNA with U28G, C29G, A30G
DNA 1: CAATCTGAATTCCGGTCTCCC
DNA 2: TGGTGGCTACGACGGGATT
B30: CUGAUGG (DNA:RNA)
RNA: B1 RNA with G26U, A31G
DNA 1: CAATCTGAATTCCGGTCTCCC
DNA 2: TGGTGGCTACGACGGGATT
B31: GAGUUCG (DNA:RNA)
RNA: B1 RNA with C25G, G26A, A28U, G30C, A31G
DNA 1: CAATCTGAATTCCGGTCTCCC
DNA 2: TGGTGGCTACGACGGGATT

The binders below were run against T1, RBFOX1 RRM (assay: EMSA; HiTS-Eq, 1 nM pool, 10 min; buffer printed only for the single-RNA assays: 10 mM Tris pH 7.5, 150 mM NaCl, 3.4 mM EDTA, 0.001% NP-40, 30 C). Conditions: tags: His6 N-terminal (pET28a); label: 5' 32P.
In short: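 Purified RbFox RRM, wild type or mutant, was incubated for 10 min in 50 µL with 1 nM of a 5′-radiolabelled RNA pool carrying 7 randomized nucleotides, whose flanks were annealed to DNA oligonucleotides, over a series of increasing protein concentrations. Unbound RNA was resolved on 8% native PAGE, cut out, reverse-transcribed, barcoded by PCR and sequenced on an Illumina HiSeq 2500. Relative association constants were derived from changes in read counts for each RNA species versus the control reaction and normalised to the cognate motif.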

Row | Binder | binding signal
1 | B1 | 0.0221 KA relative to UGCAUGU
2 | B2 | 0.0184 KA relative to UGCAUGU
3 | B3 | 0.0152 KA relative to UGCAUGU
4 | B4 | 0.0106 KA relative to UGCAUGU
5 | B5 | 0.00546 KA relative to UGCAUGU
6 | B6 | 0.00925 KA relative to UGCAUGU
7 | B7 | 0.0222 KA relative to UGCAUGU
8 | B8 | 0.00114 KA relative to UGCAUGU
9 | B9 | 0.0163 KA relative to UGCAUGU
10 | B10 | 0.0166 KA relative to UGCAUGU
11 | B11 | 0.000969 KA relative to UGCAUGU
12 | B12 | 0.0101 KA relative to UGCAUGU
13 | B13 | 0.0112 KA relative to UGCAUGU
14 | B14 | 0.023 KA relative to UGCAUGU
15 | B15 | 0.00698 KA relative to UGCAUGU
16 | B16 | 0.0161 KA relative to UGCAUGU

Row | Binder | binding signal
17 | B17 | 0.0122 KA relative to UGCAUGU
18 | B18 | 0.00434 KA relative to UGCAUGU
19 | B19 | 0.00127 KA relative to UGCAUGU
20 | B20 | 0.0114 KA relative to UGCAUGU
21 | B21 | 0.0143 KA relative to UGCAUGU
22 | B22 | 0.0139 KA relative to UGCAUGU
23 | B23 | 0.00547 KA relative to UGCAUGU
24 | B24 | 0.0189 KA relative to UGCAUGU
25 | B25 | 0.00393 KA relative to UGCAUGU
26 | B26 | 0.0185 KA relative to UGCAUGU
27 | B27 | 0.0191 KA relative to UGCAUGU
28 | B28 | 0.0293 KA relative to UGCAUGU
29 | B29 | 0.00891 KA relative to UGCAUGU
30 | B30 | 0.0123 KA relative to UGCAUGU
31 | B31 | 0.0167 KA relative to UGCAUGU
